# Data published in the supplement of paper PMC8728848.
# This is one part of the list.
# B1: Cohesin-mDCIR (Macaca mulatta) (protein)
# chain: GLDDLDAVRIKVDTVNAKPGDTVRIPVRFSGIPSKGIANCDFVYSYDPNVLEIIEIEPGDIIVDPNPDKSFDTAVYPDRKIIVFLFAEDSGTGAYAITKDGVFATIVAKVKEGAPNGLSVIKFVEVGGFANNDLVEQKTQFFDGGVNVGDTTEPATPTTPVTTPTTTDDLDAASFQKYSQLLEKMTTKDLVHTTLECVKKNMTTEETAWSCCPKNWKPFSSNCYFISTESASWQKSEKDCARMEAHLLVINTREEQDFIFQNLQEESAYFVGLSDPEGQRHWQWVDRTPYNESSTFWHPHEPSDPDERCVVLNFRKTPKRWGWNDVHCIVHQRSVCEMMKIHLHHHHHH
# Legend:
# Test in all cases: glycan array binding signal (z-score within array); higher = stronger binding
# Conditions in all cases: glycan notation: IUPAC condensed, linker removed
# [1] = molecular target: Man(a1-2)Man(a1-3)[Man(a1-2)Man(a1-6)]Man(a1-6)[Man(a1-2)Man(a1-2)Man(a1-3)]Man
# How it was run: (§1)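 Glycan array binding is given as a within-array Z-score, which can be read as non-binding when negative. The arrays, 3228 of them, came from the Consortium for Functional Glycomics database and were retained only where the protein sequence was available. Z-scores were averaged across arrays of the same protein sequence at different concentrations or buffers and across linkers.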
# [2] = molecular target: Man(a1-2)Man(a1-3)[Man(a1-2)Man(a1-6)]Man(a1-6)[Man(a1-2)Man(a1-2)Man(a1-3)]Man(b1-4)GlcNAc(b1-4)GlcNAc
# How it was run: as §1
# [3] = molecular target: Man(a1-2)Man(a1-3)[Man(a1-6)]Man(a1-6)[Man(a1-2)Man(a1-3)]Man(b1-4)GlcNAc(b1-4)GlcNAc
# How it was run: as §1
# [4] = molecular target: Man(a1-2)Man(a1-6)[Man(a1-3)]Man(a1-6)[Man(a1-2)Man(a1-2)Man(a1-3)]Man
# How it was run: as §1
# [5] = molecular target: Man(a1-2)Man(a1-6)[Man(a1-3)]Man(a1-6)[Man(a1-2)Man(a1-2)Man(a1-3)]Man(b1-4)GlcNAc(b1-4)GlcNAc
# How it was run: as §1
# [6] = molecular target: Man(a1-3)[Man(a1-6)]Man
# How it was run: as §1
# [7] = molecular target: Man(a1-3)[Man(a1-6)]Man(a1-6)[Man(a1-2)Man(a1-3)]Man(b1-4)GlcNAc(b1-4)GlcNAc
# How it was run: as §1
# [8] = molecular target: Man(a1-3)[Man(a1-6)]Man(a1-6)[Man(a1-3)]Man
# How it was run: as §1
# [9] = molecular target: Man(a1-3)[Man(a1-6)]Man(a1-6)[Man(a1-3)]Man(b1-4)GlcNAc(b1-4)GlcNAc
# How it was run: as §1
# [10] = molecular target: Man(a1-3)[Man(a1-6)]Man(b1-4)GlcNAc(b1-4)GlcNAc
# How it was run: as §1
# [11] = molecular target: Man(a1-3)[Man(a1-6)]Man(b1-4)GlcNAc(b1-4)[Fuc(a1-6)]GlcNAc
# How it was run: as §1
# [12] = molecular target: Man(a1-6)Man
# How it was run: as §1
# [13] = molecular target: Man(b1-4)GlcNAc
# How it was run: as §1
# [14] = molecular target: MurNAc(b1-4)GlcNAc
# How it was run: as §1
# [15] = molecular target: Neu5Ac(a2-3)Gal
# How it was run: as §1
# [16] = molecular target: Neu5Ac(a2-3)Gal(b1-3)GalNAc
# How it was run: as §1
# [17] = molecular target: Neu5Ac(a2-3)Gal(b1-3)GalNAc(b1-3)Gal(a1-4)Gal(b1-4)Glc
# How it was run: as §1
# [18] = molecular target: Neu5Ac(a2-3)Gal(b1-3)GalNAc(b1-4)[Neu5Ac(a2-3)]Gal(b1-4)Glc
# How it was run: as §1
# [19] = molecular target: Neu5Ac(a2-3)Gal(b1-3)GalNAc(b1-4)[Neu5Ac(a2-8)Neu5Ac(a2-3)]Gal(b1-4)Glc
# How it was run: as §1
# [20] = molecular target: Neu5Ac(a2-3)Gal(b1-3)GalNAc6S
# How it was run: as §1
# [21] = molecular target: Neu5Ac(a2-3)Gal(b1-3)GlcNAc
# How it was run: as §1
# [22] = molecular target: Neu5Ac(a2-3)Gal(b1-3)GlcNAc(b1-2)Man
# How it was run: as §1
# [23] = molecular target: Neu5Ac(a2-3)Gal(b1-3)GlcNAc(b1-2)Man(a1-3)[GlcNAc(b1-4)][Neu5Ac(a2-3)Gal(b1-3)GlcNAc(b1-2)Man(a1-6)]Man(b1-4)GlcNAc(b1-4)GlcNAc
# How it was run: as §1
# [24] = molecular target: Neu5Ac(a2-3)Gal(b1-3)GlcNAc(b1-2)Man(a1-3)[Neu5Ac(a2-3)Gal(b1-3)GlcNAc(b1-2)Man(a1-6)]Man(b1-4)GlcNAc(b1-4)GlcNAc
# How it was run: as §1
# [25] = molecular target: Neu5Ac(a2-3)Gal(b1-3)GlcNAc(b1-3)Gal(b1-3)GlcNAc
# How it was run: as §1
# [26] = molecular target: Neu5Ac(a2-3)Gal(b1-3)GlcNAc(b1-3)Gal(b1-4)GlcNAc
# How it was run: as §1
# [27] = molecular target: Neu5Ac(a2-3)Gal(b1-3)GlcNAc(b1-3)GalNAc
# How it was run: as §1
# [28] = molecular target: Neu5Ac(a2-3)Gal(b1-3)GlcNAc(b1-4)Gal(b1-4)Glc
# How it was run: as §1
# [29] = molecular target: Neu5Ac(a2-3)Gal(b1-3)GlcNAc(b1-6)GalNAc
# How it was run: as §1
# [30] = molecular target: Neu5Ac(a2-3)Gal(b1-3)GlcNAc6S
# How it was run: as §1
# [31] = molecular target: Neu5Ac(a2-3)Gal(b1-3)[Fuc(a1-4)]GlcNAc
# How it was run: as §1
# [32] = molecular target: Neu5Ac(a2-3)Gal(b1-3)[Fuc(a1-4)]GlcNAc(b1-3)Gal(b1-3)[Fuc(a1-4)]GlcNAc
# How it was run: as §1
# [33] = molecular target: Neu5Ac(a2-3)Gal(b1-3)[Fuc(a1-4)]GlcNAc(b1-3)Gal(b1-4)[Fuc(a1-3)]GlcNAc
# How it was run: as §1
# [34] = molecular target: Neu5Ac(a2-3)Gal(b1-3)[GlcNAc(b1-6)]GalNAc
# How it was run: as §1
# [35] = molecular target: Neu5Ac(a2-3)Gal(b1-3)[Neu5Ac(a2-6)]GalNAc
# How it was run: as §1
# [36] = molecular target: Neu5Ac(a2-3)Gal(b1-3)[Neu5Ac(a2-6)]GlcNAc(b1-3)[Fuc(a1-3)[Gal(b1-4)]GlcNAc(b1-6)]Gal(b1-4)Glc
# How it was run: as §1
# [37] = molecular target: Neu5Ac(a2-3)Gal(b1-3)]Neu5Ac(a2-3)Gal(b1-4)]GlcNAc
# How it was run: as §1
binder,measurement,setting,value
B1,glycan array binding signal (z-score),[1],-0.438
same,glycan array binding signal (z-score),[2],-0.412
same,glycan array binding signal (z-score),[3],-0.288
same,glycan array binding signal (z-score),[4],-0.216
same,glycan array binding signal (z-score),[5],-0.443
same,glycan array binding signal (z-score),[6],-0.342
same,glycan array binding signal (z-score),[7],-0.416
same,glycan array binding signal (z-score),[8],-0.39
same,glycan array binding signal (z-score),[9],-0.439
same,glycan array binding signal (z-score),[10],-0.133
same,glycan array binding signal (z-score),[11],0.271
same,glycan array binding signal (z-score),[12],0.943
same,glycan array binding signal (z-score),[13],-0.42
same,glycan array binding signal (z-score),[14],-0.469
same,glycan array binding signal (z-score),[15],-0.068
same,glycan array binding signal (z-score),[16],-0.417
same,glycan array binding signal (z-score),[17],-0.388
same,glycan array binding signal (z-score),[18],-0.165
same,glycan array binding signal (z-score),[19],-0.441
same,glycan array binding signal (z-score),[20],2.17
same,glycan array binding signal (z-score),[21],-0.412
same,glycan array binding signal (z-score),[22],-0.283
same,glycan array binding signal (z-score),[23],-0.247
same,glycan array binding signal (z-score),[24],0.142
same,glycan array binding signal (z-score),[25],-0.423
same,glycan array binding signal (z-score),[26],-0.413
same,glycan array binding signal (z-score),[27],-0.379
same,glycan array binding signal (z-score),[28],-0.419
same,glycan array binding signal (z-score),[29],0.849
same,glycan array binding signal (z-score),[30],-0.08
same,glycan array binding signal (z-score),[31],0.069
same,glycan array binding signal (z-score),[32],-0.418
same,glycan array binding signal (z-score),[33],-0.421
same,glycan array binding signal (z-score),[34],-0.358
same,glycan array binding signal (z-score),[35],-0.023
same,glycan array binding signal (z-score),[36],-0.45
same,glycan array binding signal (z-score),[37],0.025
